From PubChem BioAssay AID2676 (National Center for Advancing Translational Sciences (NCATS), 2010)
Screen size: about 370,000 compounds; about 1,100 (0.3%) were called active. Inconclusive means that the source gave no clear call. Such entries were picked first, then a sample of the others. The call rests on the fitted dose curve; in most records, active means well fitted activation curve with a large enough effect; inconclusive means small, poorly fitted or top-dose-only effect; inactive means flat fitted curve, though single readings scatter. Where the call is inconclusive, the potency comes from a doubtful curve fit.

target: Relaxin receptor 1 (Homo sapiens) (UniProt Q9HBX9); test: qHTS Assay for Agonists of the Relaxin Receptor RXFP1; settings: HEK293T-RXFP1 cAMP TR-FRET, 30 min; series mostly up to 57.5 µM; further: nearly all actives have a fitted effect of over 60% in size
How it was run: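 HEK293T cells stably expressing RXFP1 were pretreated with the PDE4 inhibitor Ro 20174, exposed to compounds for 30 min at 37C, lysed, and cAMP was read by TR-FRET. Data normalized to buffer (basal) and 29 nM porcine relaxin (100%).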
Potency means the concentration at half of the fitted maximal effect; tags describe the fitted curve by direction and shape.

UniProt Q9HBX9, sequence (Q9HBX9 whole entry, looked up): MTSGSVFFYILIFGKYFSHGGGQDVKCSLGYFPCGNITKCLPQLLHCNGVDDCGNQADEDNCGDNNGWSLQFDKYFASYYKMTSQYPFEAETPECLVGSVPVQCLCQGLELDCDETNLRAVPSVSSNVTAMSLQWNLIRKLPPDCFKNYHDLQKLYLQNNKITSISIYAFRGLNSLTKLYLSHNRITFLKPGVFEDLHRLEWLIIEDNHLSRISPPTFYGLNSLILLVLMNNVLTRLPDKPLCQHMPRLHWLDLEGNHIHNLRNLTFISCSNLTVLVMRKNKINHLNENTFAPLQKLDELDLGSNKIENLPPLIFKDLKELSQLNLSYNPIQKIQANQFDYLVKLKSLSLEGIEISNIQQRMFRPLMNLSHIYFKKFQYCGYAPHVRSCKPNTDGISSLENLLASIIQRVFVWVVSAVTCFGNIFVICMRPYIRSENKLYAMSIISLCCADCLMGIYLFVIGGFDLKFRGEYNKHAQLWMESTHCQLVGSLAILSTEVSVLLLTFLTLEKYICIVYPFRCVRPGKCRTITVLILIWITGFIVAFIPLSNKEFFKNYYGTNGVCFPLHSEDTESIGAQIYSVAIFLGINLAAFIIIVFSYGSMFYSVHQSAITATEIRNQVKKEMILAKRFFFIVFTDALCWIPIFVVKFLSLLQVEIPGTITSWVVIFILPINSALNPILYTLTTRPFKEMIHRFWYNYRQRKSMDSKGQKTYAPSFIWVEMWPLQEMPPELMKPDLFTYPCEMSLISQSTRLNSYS

Row | SMILES | Potency
1 | COC(=O)c1sc(NC(=O)C2CCCCC2C(=O)O)c(C(=O)OC)c1C (stereo not drawn) | inconclusive: 22.4 µM [activator, partial curve]
2 | COCCN1C(=O)C(=O)/C(=C(/O)c2ccc(OC(C)C)cc2)C1c1cccnc1 (stereo not drawn) | inconclusive: 20 µM [activator, partial curve]
3 | Cc1cc(NC(=O)CSc2nc(-c3ccccc3)c(C#N)c(=O)[nH]2)no1 | inconclusive: 31.6 µM [activator, partial curve]
4 | O=C(Nc1ccccc1N1CCN(C(=O)c2ccc(Cl)cc2)CC1)c1cccc(F)c1 | inactive
5 | CC(C)c1nc2c(c(=O)n(C)c(=O)n2C)n1C | inconclusive: 25.1 µM [activator, partial curve]
6 | Cc1ccc(CN(Cc2ccco2)C(=O)COc2ccc(Cl)cc2)o1 | inactive
7 | CSc1ccc(CCNC(=O)CCc2nnc3ccc(NCCCN4CCCC4=O)nn23)cc1 | inconclusive: 17.8 µM [activator, partial curve]
8 | O=C(C1=C(O)C(=O)N(c2nccs2)C1c1ccccc1)c1cc2ccccc2o1 (stereo not drawn) | active: 15.8 µM
9 | Clc1ccc(OCCCNCc2ccccc2)c(Br)c1 | inactive
10 | COc1ccc(NC(=O)c2sc3nc[nH]c(=O)c3c2C)cc1OC | inconclusive: 39.8 µM [activator, single point]
11 | CCc1ccccc1Nc1nn2c(=O)c3ccc(C(=O)NCc4ccccc4Cl)cc3nc2s1 | inconclusive: 39.8 µM [activator, single point]
12 | CCCCN(C)C(=O)Cn1cnc2sc(C)c(S(=O)(=O)N3CCN(c4ccccc4OC)CC3)c2c1=O | inactive
13 | Cc1cc(=O)n2nc(N3CCC(C(=O)NCc4ccc(Cl)cc4)CC3)sc2n1 | inconclusive: 28.2 µM [activator, partial curve]
14 | CC(=O)c1sc(NC(=O)COc2ccc(Cl)cc2Cl)nc1C | inconclusive: 14.1 µM [activator, partial curve]
15 | O=C(CSc1nc2ccccc2o1)Nc1nc2ccccc2s1 | inconclusive: 39.8 µM [activator, single point]
16 | CC(C)Nc1nc(-c2ccncc2)nc(-c2ccc(Cl)cc2)c1C#N | inconclusive: 39.8 µM [activator, single point]
17 | Cc1ccc(OCC(=O)Nc2nc(-c3ccc(Br)cc3)ns2)cc1 | inconclusive: 25.1 µM [activator, partial curve]
18 | COC(=O)c1nc2ccc(N3CCOCC3)cc2c(C)c1C(=O)OC | inconclusive: 25.1 µM [activator, partial curve]
19 | Cc1ccc(OCCC(=O)OCC(=O)c2c(N)n(CC(C)C)c(=O)n(C)c2=O)cc1 | inactive
20 | CCOC(=O)c1c(NC(=S)Nc2ccc(C)cc2)sc2c1CCC2 | inconclusive: 31.6 µM [activator, single point]
21 | Cc1cc(=O)oc2cc(OS(C)(=O)=O)ccc12 | inactive
22 | O=C(CCCn1c(=O)c2ccccc2n(Cc2cccc(F)c2)c1=O)NCc1ccccc1Cl | inconclusive: 35.5 µM [activator, single point]
23 | COc1ccc(NC(=O)CN(c2ccc(C)cc2)S(=O)(=O)c2cccs2)cc1 | inactive

Row | SMILES | Potency
24 | COc1cccc(CNC(=O)CCc2nnc3ccc(NCCCN4CCCC4=O)nn23)c1 | inconclusive: 15.8 µM [activator, partial curve]
25 | Cc1cc(COc2ccccc2OCCN2CCN(C)CC2)no1 | inactive
26 | Cc1cc(C)cc(N(CC(=O)NCc2ccco2)C(=O)c2snc(C(N)=O)c2N)c1 | inactive
27 | O=C(Nc1cc(Cl)cc(Cl)c1)c1ccc(Cn2c(=O)[nH]c3ccsc3c2=O)cc1 | inconclusive: 39.8 µM [activator, single point]
28 | N#Cc1cccc(Oc2ccc(S(=O)(=O)N3CCCC3)cn2)c1 | inactive
29 | O=C(C1CC1)N1c2ccccc2Sc2ccccc21 | inactive
30 | Cc1cccc(Cn2c(SCc3ccc(C(=O)NC4CCCCC4)cc3)nc3ccncc32)c1 | inconclusive: 39.8 µM [activator, single point]
31 | CCOC(=O)c1c(N)sc(=S)c2c1CCC2 | inconclusive: 35.5 µM [activator, single point]
32 | Cc1nc(N)c(C#N)c(-c2cccnc2)c1-c1ccccc1 | inconclusive: 31.6 µM [activator, single point]
33 | Cc1cc2ccccc2nc1SCC(=O)NC1CCCC1 | inconclusive: 22.4 µM [activator, partial curve]
34 | CCCc1nc2oc3c(=O)[nH]cnc3c2c2c1COC(C)(C)C2 | inconclusive: 28.2 µM [activator, partial curve]
35 | O=C(Nc1ccc(-c2noc(-c3ccccc3F)n2)cc1)c1cccs1 | inconclusive: 35.5 µM [activator, single point]
36 | CN(C)S(=O)(=O)c1cccc(COc2ncnc3c(Cl)cc(Cl)cc23)c1 | active: 15.8 µM
37 | CCC(Sc1nc2nccnc2c(=O)n1Cc1ccc(C)cc1)C(=O)NC1CCCCC1 (stereo not drawn) | inconclusive: 35.5 µM [activator, single point]
38 | CCc1ccccc1N(C(=O)c1snc(C(N)=O)c1N)C(C(=O)NCC1CCCO1)c1ccc(N(C)C)cc1 (stereo not drawn) | inconclusive: 39.8 µM [activator, single point]
39 | COc1ccc(N2CCN(C(=O)c3cc(S(=O)(=O)N4CCC(C)CC4)cn3C)CC2)cc1 | inactive
40 | NS(=O)(=O)c1ccc2nc(NC(=O)COc3ccccc3)sc2c1 | inconclusive: 39.8 µM [activator, single point]
41 | CC(=O)c1sc(-c2ccccc2)cc1N | inconclusive: 25.1 µM [activator, partial curve]
42 | CCCCOc1ccc(-c2c(C(=O)Nc3ccccc3)c(C)[nH]c(=S)c2C#N)cc1 | active: 22.4 µM
43 | CCOC(=O)N1CCN(Cc2nc(N)nc(Nc3ccc(Cl)cc3)n2)CC1 | inactive
44 | Cc1ccc(-c2nc(S(=O)(=O)c3ccc(C)cc3)c(SCC(=O)NCC3CCCO3)o2)cc1 (stereo not drawn) | inconclusive: 39.8 µM [activator, single point]
45 | COC(=O)c1ccc2ccn(CC(=O)NC3CCCCC3)c2c1 | inconclusive: 35.5 µM [activator, single point]
46 | Cn1c(CNS(=O)(=O)c2ccc(Cl)cc2)cc(=O)n(C)c1=O | inconclusive: 28.2 µM [activator, single point]

Row | SMILES | Potency
47 | Nc1nc(Nc2cccc(F)c2)nc2ccccc12 | inactive
48 | COc1ccc2c(Cl)c(C(N)=O)sc2c1 | inconclusive: 15.8 µM [activator, partial curve]
49 | CCOc1cccc(C2C(C(=O)c3ccc(C)o3)=C(O)C(=O)N2c2nccs2)c1 (stereo not drawn) | inconclusive: 28.2 µM [activator, single point]
50 | Cc1ccc(-c2nnn(CC(=O)Nc3ccc4nn(-c5ccccc5)nc4c3)n2)o1 | inactive
51 | Cc1ccc(OCCCCn2c(-c3ccc(Cl)cc3)nc3ccccc3c2=O)cc1 | inconclusive: 35.5 µM [activator, single point]
52 | Cc1cc(N2CCC(C(=O)Nc3ccc(F)cc3F)CC2)n2nc(C)c(-c3ccc(Cl)cc3)c2n1 | inconclusive: 39.8 µM [activator, single point]
53 | O=C(C1=C(O)C(=O)N(CCc2ccccc2)C1c1cccnc1)c1ccco1 (stereo not drawn) | inconclusive: 31.6 µM [activator, single point]
54 | O=C(Nc1cccc(F)c1)c1cnc2sc(N3CCCC3)nn2c1=O | inconclusive: 39.8 µM [activator, single point]
55 | CCOC(=O)C1CCN(C(=O)CCc2nnc3ccc(N4CCC(C)CC4)nn23)CC1 | inconclusive: 15.8 µM [activator, partial curve]
56 | O=C(CN1c2ccccc2S(=O)(=O)c2ccccc21)NCc1ccccc1 | inconclusive: 31.6 µM [activator, single point]
57 | Cc1cccc(CNC(=O)Cn2nc(C)c3nn(-c4ccc(Cl)cc4)c(C)c3c2=O)c1 | inconclusive: 35.5 µM [activator, single point]
58 | O=C(Cn1cc(C(=O)c2ccco2)c2ccccc21)Nc1ccccc1C(F)(F)F | inconclusive: 35.5 µM [activator, single point]
59 | CCC(Sc1nnc(-c2ccc(F)cc2)c(-c2ccc(F)cc2)n1)C(=O)NC1CCCC1 (stereo not drawn) | inconclusive: 31.6 µM [activator, single point]
60 | CCOC(=O)c1sc2nc(C)[nH]c(=S)c2c1C | active: 28.2 µM
61 | CC(=O)c1cccc(NC(=O)c2ccc(S(=O)(=O)N3CC(C)OC(C)C3)cc2)c1 (stereo not drawn) | inconclusive: 39.8 µM [activator, single point]
62 | COc1cc2nc(NCCc3cccc(C)c3)n3nc(-c4ccccc4)nc3c2cc1OC | inconclusive: 35.5 µM [activator, single point]
63 | CCOC(=O)c1cccc(NC(=O)COc2ccc3c(C)cc(=O)oc3c2)c1 | inconclusive: 8.91 µM [activator, partial curve]
64 | CCOC(=O)C1=NN(c2ccc([N+](=O)[O-])cc2)CC1C(=O)OC (stereo not drawn) | inconclusive: 20 µM [activator, partial curve]
65 | Cc1ccc(NN2C(=O)C=C(c3ccc(Cl)cc3)C2=O)cc1 | inactive
66 | Cc1noc(Cn2c(=O)c3ccccc3n(CC(=O)Nc3cc(Cl)ccc3C)c2=O)n1 | inconclusive: 35.5 µM [activator, single point]
67 | O=C(Nc1nc(-c2cccs2)cs1)c1cccc(S(=O)(=O)N2CCCCCC2)c1 | inactive
68 | CC(=O)OC(C(=O)NC1CCCCC1)c1cccc(C)c1 (stereo not drawn) | inactive
